This note sets out measurements from the domain aggregation screens of Martell et al. (2025).

This data set is described as follows: soluble fraction after stress (log2 fold change); higher = more stays soluble; pooled small domains, quantitative proteomics. As to conditions: stress: 50 degC. In short, it runs like this: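 The stress applied to every library was 50°C. These custom libraries of small protein domains were pooled and measured at high throughput with quantitative proteomics as the read-out. Aggregation propensity is expressed as the base-two logarithm of the fold change in how much of each protein remains soluble. The higher the value, the more of that protein stays in solution.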
Turning to “HMEETALAIGREVGYPVIIKAAGGGGGRGMRVVRNEAELAAAIALTKSEAGQFFKNDMVYMEKYL”, the “soluble fraction (log2)” value is 0.143. In the case of “HMEGHVLRSPMVGTFYASSAPDKPAFVSVGQQVKEGETLAIIEAMKMFNPIEADKSGTIVAILG”, the “soluble fraction (log2)” value was determined as 0.12. As for “HMRRLQTIVYEKGLASTIKQARQMITHGHIFMNGHRVTVPGYLVTRAEESSIEFNPASPFTDEMHPM”, the “soluble fraction (log2)” value is -1.84.
